About 2,200 (0.71%) of roughly 310,000 compounds showed an effect of 50% or more. Effects have a minus sign here. This is one part of the list.
What follows are compounds tested against human ether-à-go-go-related gene (hERG) potassium channel (human, UniProt Q12809) (assay: primary screen, population patch clamp on CHO cells stably expressing hERG).
human ether-à-go-go-related gene (hERG) potassium channel, sequence (Q12809 whole entry, looked up): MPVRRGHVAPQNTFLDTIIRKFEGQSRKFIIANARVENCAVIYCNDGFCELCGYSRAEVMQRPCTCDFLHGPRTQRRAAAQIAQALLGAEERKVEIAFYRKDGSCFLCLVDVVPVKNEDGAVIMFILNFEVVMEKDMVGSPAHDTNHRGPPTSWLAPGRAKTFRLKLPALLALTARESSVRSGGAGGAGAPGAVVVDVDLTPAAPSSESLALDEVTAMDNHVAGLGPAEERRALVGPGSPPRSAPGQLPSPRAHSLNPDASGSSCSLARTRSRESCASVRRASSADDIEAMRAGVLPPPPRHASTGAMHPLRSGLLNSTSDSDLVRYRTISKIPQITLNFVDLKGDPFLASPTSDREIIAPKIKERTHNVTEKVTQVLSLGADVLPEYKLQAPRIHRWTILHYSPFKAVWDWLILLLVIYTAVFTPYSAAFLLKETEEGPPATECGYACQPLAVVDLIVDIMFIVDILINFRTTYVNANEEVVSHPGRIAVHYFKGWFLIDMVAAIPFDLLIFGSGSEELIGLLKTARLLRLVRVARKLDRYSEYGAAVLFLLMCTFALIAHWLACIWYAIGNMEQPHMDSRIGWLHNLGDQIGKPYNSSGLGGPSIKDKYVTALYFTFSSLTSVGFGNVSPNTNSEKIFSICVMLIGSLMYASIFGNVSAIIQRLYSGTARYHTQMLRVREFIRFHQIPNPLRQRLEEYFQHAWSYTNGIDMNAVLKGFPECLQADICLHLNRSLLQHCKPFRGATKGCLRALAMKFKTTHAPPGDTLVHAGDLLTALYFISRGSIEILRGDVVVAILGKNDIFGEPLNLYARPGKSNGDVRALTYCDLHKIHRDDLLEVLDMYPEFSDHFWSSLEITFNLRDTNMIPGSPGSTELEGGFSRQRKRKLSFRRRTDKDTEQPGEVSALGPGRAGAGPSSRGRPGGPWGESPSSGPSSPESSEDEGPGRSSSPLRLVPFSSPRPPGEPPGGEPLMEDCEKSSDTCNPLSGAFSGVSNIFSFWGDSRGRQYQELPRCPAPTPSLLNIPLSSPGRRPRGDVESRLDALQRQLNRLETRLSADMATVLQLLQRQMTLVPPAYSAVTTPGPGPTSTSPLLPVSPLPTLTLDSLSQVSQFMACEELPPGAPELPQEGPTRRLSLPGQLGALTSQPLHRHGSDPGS

Compound	hERG current change (%, negative = inhibition) at 1uM [%]
Cc1nc(CCN2C(=O)c3ccccc3C2=O)n[nH]1	0.67
CC(=O)c1cc(C(c2csc(C(C)=O)c2)c2csc(C(C)=O)c2)cs1	-3.91
CC1=C(C(=O)OCc2ccccc2)C(c2ccc(Cl)cc2Cl)NC(=O)N1CCCC(=O)O (stereo not shown)	6.77
COc1ccc(OCc2nnc(NC(=O)Nc3ccccc3F)s2)cc1	2.36
O=C(Nc1nnc(C2CC2)s1)C1COc2ccccc2O1 (stereo not shown)	19.2
CCc1ccc(NC(=O)CSc2nnc(COc3ccc4c(c3)CCCC4)o2)cc1	-9.93
CN1C(=O)C(=O)/C(=C(/O)c2ccc(Br)cc2)C1c1cccc([N+](=O)[O-])c1 (stereo not shown)	13.5
COc1ccc(NP(=O)(Nc2ccc(OC)cc2)Oc2ccccc2)cc1	7.04
COc1ccccc1CNC(=O)[C@H](NC(=O)C1CCN(C(=O)[C@@H](N)CCSC)CC1)C(C)C	-0.151
CN(C)c1ccc(-c2nnn(Cc3ccccc3Br)n2)cc1	13.5
CCCC(C)c1nnc(NC(=O)C2CC(=O)N(CCc3ccc(F)cc3)C2)s1 (stereo not shown)	-9.9
CCCn1c(=O)c2ccccc2n2c(SCCNCCO)nnc12.O=C(O)C(=O)O	14.5
Cc1ccc(NC(=O)CSc2nnc(-c3ccncc3)s2)cc1	9.27
CCc1ccc(N2C(=O)C3ON(c4ccccc4)C(c4ccco4)C3C2=O)cc1 (stereo not shown)	6.8
CC(=O)C1C(=O)NC23CCCCC2C1c1ccccc1O3 (stereo not shown)	7.91
Cc1ccc(/C=C/C(=O)N(Cc2cccs2)C2CCS(=O)(=O)C2)cc1 (stereo not shown)	4.65
CCCCc1ccc(NC(=S)NCCO)cc1	7.16
Cc1sc2nc(CSc3ccccc3)nc(N3CCOCC3)c2c1C	9.62
c1cc2c3c(cccc3c1)C(N1CCOCC1)=N2	-0.83
COc1ccccc1NC(=O)CN1CCN(CC(=O)Nc2ccc3c(c2)OCCO3)CC1	-10.6
CC1(C)OC(=O)C(=NNc2ccc(C(=O)O)cc2)C(=O)O1	15
CC(C)(C)OC(=O)N1CCC(c2cc(-c3cccs3)n[nH]2)CC1	4.89
O=c1[nH]c(=O)n(Cc2ccc(F)cc2)c(O)c1C=NCCCn1ccnc1	15.6
O=C(CC1Oc2ccccc2NC1=O)NCCc1ccccc1 (stereo not shown)	-2.36
CC(=O)c1ccc(OCc2cc(C(=O)N3CCN4CCCC4C3)no2)cc1 (stereo not shown)	8.74

— article PMC4336329 (PLoS ONE, 2015)
